This is one part of the list.
How the values were obtained:
Experiment in all cases: glycan array binding signal (z-score within array); higher = stronger binding
Conditions in all cases: glycan notation: IUPAC condensed, linker removed
[1] = molecular target: Neu5Ac(a2-3)Gal(b1-4)GlcNAc(b1-2)[Neu5Ac(a2-3)Gal(b1-4)GlcNAc(b1-4)]Man(a1-3)[GlcNAc(b1-4)][Neu5Ac(a2-3)Gal(b1-4)GlcNAc(b1-4)Man(a1-6)]Man(b1-4)GlcNAc(b1-4)GlcNAc
Procedure, shortened: (§1)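 Arrays were curated from the Consortium for Functional Glycomics database, 3228 in total, and kept only where the protein sequence was available. Binding is expressed as a within-array Z-score. This score was averaged across arrays of the same protein sequence at different concentrations or buffers and across linkers, and negative values can be read as non-binding.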

[2] = molecular target: Neu5Ac(a2-3)Gal(b1-4)GlcNAc(b1-2)[Neu5Ac(a2-3)Gal(b1-4)GlcNAc(b1-6)]Man(a1-6)[Neu5Ac(a2-3)Gal(b1-4)GlcNAc(b1-2)Man(a1-3)]Man(b1-4)GlcNAc(b1-4)GlcNAc
Procedure, shortened: as §1

[3] = molecular target: Neu5Ac(a2-3)Gal(b1-4)GlcNAc(b1-2)[Neu5Ac(a2-3)Gal(b1-4)GlcNAc(b1-6)]Man(a1-6)[Neu5Ac(a2-3)Gal(b1-4)GlcNAc(b1-2)Man(a1-3)][GlcNAc(b1-4)]Man(b1-4)GlcNAc(b1-4)GlcNAc
Procedure, shortened: as §1

[4] = molecular target: Neu5Ac(a2-3)Gal(b1-4)GlcNAc(b1-3)Gal
Procedure, shortened: as §1

[5] = molecular target: Neu5Ac(a2-3)Gal(b1-4)GlcNAc(b1-3)Gal(b1-3)GlcNAc
Procedure, shortened: as §1

[6] = molecular target: Neu5Ac(a2-3)Gal(b1-4)GlcNAc(b1-3)Gal(b1-4)GlcNAc
Procedure, shortened: as §1

[7] = molecular target: Neu5Ac(a2-3)Gal(b1-4)GlcNAc(b1-3)Gal(b1-4)GlcNAc(b1-2)Man(a1-3)[Neu5Ac(a2-3)Gal(b1-4)GlcNAc(b1-3)Gal(b1-4)GlcNAc(b1-2)Man(a1-6)]Man(b1-4)GlcNAc(b1-4)GlcNAc
Procedure, shortened: as §1

[8] = molecular target: Neu5Ac(a2-3)Gal(b1-4)GlcNAc(b1-3)Gal(b1-4)GlcNAc(b1-3)Gal(b1-4)GlcNAc
Procedure, shortened: as §1

[9] = molecular target: Neu5Ac(a2-3)Gal(b1-4)GlcNAc(b1-3)Gal(b1-4)GlcNAc(b1-3)Gal(b1-4)GlcNAc(b1-2)Man(a1-3)[Neu5Ac(a2-3)Gal(b1-4)GlcNAc(b1-3)Gal(b1-4)GlcNAc(b1-3)Gal(b1-4)GlcNAc(b1-2)Man(a1-6)]GalNAc
Procedure, shortened: as §1

[10] = molecular target: Neu5Ac(a2-3)Gal(b1-4)GlcNAc(b1-3)Gal(b1-4)GlcNAc(b1-3)GalNAc
Procedure, shortened: as §1

[11] = molecular target: Neu5Ac(a2-3)Gal(b1-4)GlcNAc(b1-3)Gal(b1-4)GlcNAc(b1-3)[Neu5Ac(a2-3)Gal(b1-4)GlcNAc(b1-3)Gal(b1-4)GlcNAc(b1-6)]GalNAc
Procedure, shortened: as §1

[12] = molecular target: Neu5Ac(a2-3)Gal(b1-4)GlcNAc(b1-3)Gal(b1-4)GlcNAc(b1-6)[Gal(b1-3)]GalNAc
Procedure, shortened: as §1

[13] = molecular target: Neu5Ac(a2-3)Gal(b1-4)GlcNAc(b1-3)Gal(b1-4)[Fuc(a1-3)]GlcNAc
Procedure, shortened: as §1

[14] = molecular target: Neu5Ac(a2-3)Gal(b1-4)GlcNAc(b1-3)GalNAc
Procedure, shortened: as §1

[15] = molecular target: Neu5Ac(a2-3)Gal(b1-4)GlcNAc(b1-3)[Neu5Ac(a2-3)Gal(b1-4)GlcNAc(b1-6)]GalNAc
Procedure, shortened: as §1

[16] = molecular target: Neu5Ac(a2-3)Gal(b1-4)GlcNAc(b1-6)GalNAc
Procedure, shortened: as §1

[17] = molecular target: Neu5Ac(a2-3)Gal(b1-4)GlcNAc(b1-6)[Gal(b1-3)]GalNAc
Procedure, shortened: as §1

[18] = molecular target: Neu5Ac(a2-3)Gal(b1-4)GlcNAc(b1-6)[Neu5Ac(a2-3)Gal(b1-3)]GalNAc
Procedure, shortened: as §1

[19] = molecular target: Neu5Ac(a2-3)Gal(b1-4)GlcNAc6S
Procedure, shortened: as §1

[20] = molecular target: Neu5Ac(a2-3)Gal(b1-4)[Fuc(a1-3)]GlcNAc
Procedure, shortened: as §1

[21] = molecular target: Neu5Ac(a2-3)Gal(b1-4)[Fuc(a1-3)]GlcNAc(b1-2)Man
Procedure, shortened: as §1

[22] = molecular target: Neu5Ac(a2-3)Gal(b1-4)[Fuc(a1-3)]GlcNAc(b1-3)Gal
Procedure, shortened: as §1

[23] = molecular target: Neu5Ac(a2-3)Gal(b1-4)[Fuc(a1-3)]GlcNAc(b1-3)Gal(b1-4)GlcNAc
Procedure, shortened: as §1

[24] = molecular target: Neu5Ac(a2-3)Gal(b1-4)[Fuc(a1-3)]GlcNAc(b1-3)Gal(b1-4)[Fuc(a1-3)]GlcNAc(b1-3)Gal(b1-4)[Fuc(a1-3)]GlcNAc
Procedure, shortened: as §1

[25] = molecular target: Neu5Ac(a2-3)Gal(b1-4)[Fuc(a1-3)]GlcNAc(b1-3)GalNAc
Procedure, shortened: as §1

[26] = molecular target: Neu5Ac(a2-3)Gal(b1-4)[Fuc(a1-3)]GlcNAc(b1-6)[Gal(b1-3)]GalNAc
Procedure, shortened: as §1

[27] = molecular target: Neu5Ac(a2-3)Gal(b1-4)[Fuc(a1-3)]GlcNAc(b1-6)[Neu5Ac(a2-3)Gal(b1-3)]GalNAc
Procedure, shortened: as §1

[28] = molecular target: Neu5Ac(a2-3)Gal(b1-4)[Fuc(a1-3)]GlcNAc6S
Procedure, shortened: as §1

[29] = molecular target: Neu5Ac(a2-3)Gal6S(b1-4)GlcNAc
Procedure, shortened: as §1

[30] = molecular target: Neu5Ac(a2-3)Gal6S(b1-4)[Fuc(a1-3)]GlcNAc
Procedure, shortened: as §1

[31] = molecular target: Neu5Ac(a2-3)GalNAc
Procedure, shortened: as §1

[32] = molecular target: Neu5Ac(a2-3)GalNAc(b1-4)GlcNAc
Procedure, shortened: as §1

[33] = molecular target: Neu5Ac(a2-3)[GalNAc(b1-4)]Gal(b1-4)Glc
Procedure, shortened: as §1

[34] = molecular target: Neu5Ac(a2-3)[GalNAc(b1-4)]Gal(b1-4)GlcNAc
Procedure, shortened: as §1

[35] = molecular target: Neu5Ac(a2-3)[GalNAc(b1-4)]Gal(b1-4)GlcNAc(b1-3)GalNAc
Procedure, shortened: as §1

[36] = molecular target: Neu5Ac(a2-3)[Neu5Ac(a2-6)]GalNAc
Procedure, shortened: as §1

[37] = molecular target: Neu5Ac(a2-6)Gal
Procedure, shortened: as §1

B1: PX14375l-pdi-526-25-526 (Parabacteroides distasonis) (protein)
chain: DEEPKSTLTDVAYYKTQSQMESNVNYLYRTGAIGSYVDFGSAYIGPFASIQEELTGYFSNSYEGQEIVCRYTRELTRQQNTMQLASKMDKVWDDCYRGINVANGAIKHMPEVPMDQATADRLTAEAKFFRAFNYFYLVKTFGAVPFYTDPYELAENMELPRTETSTIYNQIESDLKDAMNVLPEATFAANGHRITKYVAAMTLTDVYMYQHKYAEAAETVRIVVNSNHKLTTNDDLAMNSAFNKLRSTDDLDEAIYAYEYDNQISPSNWLPTYAFDGDASSNGLFGTYAITQKVHGPNDRYLNIYESNDLRRQPNQFYHWTYTNPKTGKVWNSVGNAACCWYYYDEDALLTTGRGTKDWNVYRYAEALLDAAESIAQSTGVTAEAAGYLAQVKARANMEGKTAAEIASSLQSMGKQAFIEECWTERLRELPLEFKMWDMCVRTGMFPNISETTPGQVTYIPLVGAKNASGATIKESDLLWPLSVNEIQRNPSLTQNEGYSAK
glycan array binding signal (z-score) [1]: -0.392 | glycan array binding signal (z-score) [2]: 0.151 | glycan array binding signal (z-score) [3]: -0.364 | glycan array binding signal (z-score) [4]: -0.144 | glycan array binding signal (z-score) [5]: -0.252 | glycan array binding signal (z-score) [6]: -0.289 | glycan array binding signal (z-score) [7]: -0.162 | glycan array binding signal (z-score) [8]: -0.296 | glycan array binding signal (z-score) [9]: 1.67 | glycan array binding signal (z-score) [10]: -0.387 | glycan array binding signal (z-score) [11]: -0.339 | glycan array binding signal (z-score) [12]: 0.041 | glycan array binding signal (z-score) [13]: -0.132 | glycan array binding signal (z-score) [14]: -0.257 | glycan array binding signal (z-score) [15]: -0.205 | glycan array binding signal (z-score) [16]: -0.422 | glycan array binding signal (z-score) [17]: 0.031 | glycan array binding signal (z-score) [18]: -0.135 | glycan array binding signal (z-score) [19]: -0.299 | glycan array binding signal (z-score) [20]: -0.14 | glycan array binding signal (z-score) [21]: -0.069 | glycan array binding signal (z-score) [22]: -0.337 | glycan array binding signal (z-score) [23]: 0.129 | glycan array binding signal (z-score) [24]: -0.172 | glycan array binding signal (z-score) [25]: 0.002 | glycan array binding signal (z-score) [26]: 0.593 | glycan array binding signal (z-score) [27]: 0.444 | glycan array binding signal (z-score) [28]: -0.095 | glycan array binding signal (z-score) [29]: -0.067 | glycan array binding signal (z-score) [30]: -0.289 | glycan array binding signal (z-score) [31]: 0.09 | glycan array binding signal (z-score) [32]: -0.076 | glycan array binding signal (z-score) [33]: -0.137 | glycan array binding signal (z-score) [34]: -0.307 | glycan array binding signal (z-score) [35]: -0.169 | glycan array binding signal (z-score) [36]: -0.316 | glycan array binding signal (z-score) [37]: 0.084
